From the supplement of paper PMC4604168 (melanoma cell lines)
Some of the results follow. Many values rest on one well or one pass, so single values are uncertain.

System: A101D
Experiment: cell count relative to DMSO control; melanoma cells; higher = more viable cells
Conditions: library dose: standard library concentration; 72 h
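Further: cells treated in 1,536-well plates, then fixed and DAPI-stained, with nuclei counted from automated high-throughput microscope images.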

SMILES	cell count
Cn1c(Nc2ccc(C(F)(F)F)cc2)nc2cc(Oc3ccnc(-c4ncc(C(F)(F)F)[nH]4)c3)ccc21 + CC1(C)NC(=O)N(c2ccc([N+](=O)[O-])c(C(F)(F)F)c2)C1=O [nilutamide] (first compound 0.4 µM, partner dose 5 µM)	55.9%
COCC[n+]1c2c(n(Cc3cnccn3)c1C)C(=O)c1ccccc1C2=O + NC(=O)Nc1cc(-c2cccc(F)c2)sc1C(=O)N[C@H]1CCCNC1 [AZD7762] (first compound 0.002 µM, partner dose 0.1 µM)	51.7%
C#Cc1cccc(Nc2ncnc3cc(OCCOC)c(OCCOC)cc23)c1 [erlotinib] + CN(C)S(=O)(=O)c1ccc2c(c1)/C(=C/c1cc3c([nH]1)CCCC3)C(=O)N2 [SU6656] (first compound 4 µM, partner dose 2 µM)	59.3%
Cn1c(Nc2ccc(C(F)(F)F)cc2)nc2cc(Oc3ccnc(-c4ncc(C(F)(F)F)[nH]4)c3)ccc21 + COc1cc2c(Oc3ccc4[nH]c(C)cc4c3F)ncnc2cc1OCCCN1CCCC1 [cediranib] (first compound 0.4 µM, partner dose 2 µM)	58.5%
Clc1ccc(Nc2nnc(Cc3ccncc3)c3ccccc23)cc1 [vatalanib] + Cc1ccc(NC(=O)c2cccc(N(C)C)c2)cc1NC(=O)c1ccc(O)cc1 [ZM336372] (first compound 10 µM, partner dose 10 µM)	61.3%
Cn1c(Nc2ccc(C(F)(F)F)cc2)nc2cc(Oc3ccnc(-c4ncc(C(F)(F)F)[nH]4)c3)ccc21 + CC(C)(C)c1cnc(CSc2cnc(NC(=O)C3CCNCC3)s2)o1 [SNS-032] (first compound 0.4 µM, partner dose 0.05 µM)	39.8%
C#Cc1cccc(Nc2ncnc3cc(OCCOC)c(OCCOC)cc23)c1 [erlotinib] + COc1cc(Nc2ncc(F)c(Nc3ccc4c(n3)NC(=O)C(C)(C)O4)n2)cc(OC)c1OC [Tamatinib] (first compound 4 µM, partner dose 2 µM)	53.4%
Cn1c(Nc2ccc(C(F)(F)F)cc2)nc2cc(Oc3ccnc(-c4ncc(C(F)(F)F)[nH]4)c3)ccc21 + C[C@]1(c2nc3c(C(N)=O)cccc3[nH]2)CCCN1 [Veliparib] (first compound 0.4 µM, partner dose 7 µM)	42.5%
COCC[n+]1c2c(n(Cc3cnccn3)c1C)C(=O)c1ccccc1C2=O + CC1(C)NC(=O)N(c2ccc([N+](=O)[O-])c(C(F)(F)F)c2)C1=O [nilutamide] (first compound 0.002 µM, partner dose 5 µM)	74.2%
O=C(CCCCCCC(=O)Nc1ccccc1)NO [vorinostat] + CO[C@@H]1[C@H](N(C)C(=O)c2ccccc2)C[C@H]2O[C@]1(C)n1c3ccccc3c3c4c(c5c6ccccc6n2c5c31)C(=O)NC4 [Midostaurin] (first compound 0.4 µM, partner dose 0.4 µM)	52%
Clc1ccc(Nc2nnc(Cc3ccncc3)c3ccccc23)cc1 [vatalanib] + C=CCn1c(=O)c2cnc(Nc3ccc(N4CCN(C)CC4)cc3)nc2n1-c1cccc(C(C)(C)O)n1 [MK1775] (first compound 10 µM, partner dose 0.1 µM)	55.6%
OCc1c[nH]c2ccccc12 [Indole-3-carbinol] + OCCn1cc(-c2cnc3nnn(Cc4ccc5ncccc5c4)c3n2)cn1 [PF04217903] (first compound 4 µM, partner dose 5 µM)	98.9%
COCC[n+]1c2c(n(Cc3cnccn3)c1C)C(=O)c1ccccc1C2=O + Cn1nnc2c(C(N)=O)ncn2c1=O [temozolomide] (first compound 0.002 µM, partner dose 10 µM)	46.5%
OCc1c[nH]c2ccccc12 [Indole-3-carbinol] + O=C(O)c1ccc(-c2c[nH]c3ncc(-c4ccccc4)cc23)cc1C1CCCC1 [GSK650394] (first compound 4 µM, partner dose 0.8 µM)	79%
COCC[n+]1c2c(n(Cc3cnccn3)c1C)C(=O)c1ccccc1C2=O + O=C(Nc1cccc(Cl)c1)Nc1ncc(CCNc2ncnc3ccsc23)s1 [SNS314] (first compound 0.002 µM, partner dose 0.004 µM)	54.6%
